Test results as given in patent US20220380473A1, “ANTI-GAL3 ANTIBODIES AND USES THEREOF” (TrueBinding, Inc., priority 2019, published 2022).

B1: 846T.1H2: murine anti-Gal3 antibody (antibody, V domains shown)
VH: QIQLVQSGPELKKPGETVKISCKASGYTFTNYGMNWVKQAPGKGLKWMGWINTNTGEPTYAEEFKGRFAFSLETSASTAYLQINNLKNEDTATYFCATGGGNWDFDYWGQGTTLTVSS
VL: DVVMTQTPLTLSVTIGQPASISCKSSQSLLYSNGKTYLNWLLQRPGQSPKRLIYLVSKLDSGVPDRFTGSGSGTDFTLKISRVEAEDLGVYYCVQGTHFPQTFGGGTKLEIK
B2: 13H12.2F8: murine anti-Gal3 antibody (antibody, V domains shown)
VH: QIQLVQSGPELKKPGETVKISCKASGYTFTTYGMSWVKQAPGKGLKWMGWINTYSGVPTYADDFKGRFAFSLETSASTAYLQINNLKNEDTATYFCAVPYEYDGAYWGQGTLVTVSA
VL: B1 VL with L30F, Y31H, N33D, V94W, Q101L, G105A, I111M
modifications: VH of 13H12.2F8; VL of 13H12.2F8
notes: murine anti-Gal3 antibody
B3: 14H10.2C9: murine anti-Gal3 antibody (antibody, V domains shown)
VH: B2 VH with S35G, G44D, N84S, A97S, V98T
VL: B1 VL with L30F, Y31D, N33D, V94W, Q101L, G105A, I111M
B4: 3B11.2G2: murine anti-Gal3 antibody (antibody, V domains shown)
VH: QIQLVQSGPELKKPGETVKISCKTSGYKFKTYVMSWVKQAPGKALKWMGWINTYSGVPTYADDFKGRFAFSLETSASTAYLEIINLKNEDTATYFCARDGNYGDPMDYWGQGTSVTVSS
VL: B1 VL with T14A, S32T, T68S, V94L, G96S, Q101L, G105A, I111L
B5: 4G2.2G6: murine anti-Gal3 antibody (antibody, V domains shown)
VH: QIQLVQSGPDLKKPGETVKISCKASGYTFTTYVMSWVKQAPGKDLKWMGWINTHSGVPTYADDFKGRFDFSLETSANTAFLQINNLKNEDTATYFCTRDGNDGDAMDNWGQGTSVTVSS
VL: B1 VL with S32T, N33D, N39S, L41F, T68S, V94L, G96S, Q101L, G105A, I111V

target: Galectin-3 (Homo sapiens, UniProt P17931); assay: SPR (BiacoreT200) binding affinity; details: 25° C., read-out: hGal-3 KD
Sequence (P17931 whole entry): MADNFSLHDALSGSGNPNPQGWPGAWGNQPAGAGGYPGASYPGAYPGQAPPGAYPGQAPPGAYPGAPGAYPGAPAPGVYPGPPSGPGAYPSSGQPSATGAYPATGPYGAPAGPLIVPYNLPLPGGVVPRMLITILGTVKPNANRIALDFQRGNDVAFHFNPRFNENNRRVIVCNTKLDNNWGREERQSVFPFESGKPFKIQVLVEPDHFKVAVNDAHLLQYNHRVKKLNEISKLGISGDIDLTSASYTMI
Experimental: GAL3-binding antibodies were evaluated for their binding affinity by SPR. Kinetics experiments were performed on BiacoreT200 at 25° C. in high performance mode. Ligand proteins, purified antibodies were captured onto a CM5 chip coupled with anti-human Fc or anti-mouse Fc antibody, three antibodies at a time onto flow cell #2, 3, and 4, respectively, while flow cell #1 was used as reference. The analyte Galectin-3 in HBS-EP buffer was injected over all four flow cells at concentrations of 100, 50, 25, 12.5, 6.25, 3.125 and 0 nM at a flow rate of 30 μL/min. The complex was allowed to associate and dissociate for 240 and 300 seconds, respectively. The surfaces were regenerated with a 30 second injection of 10 mM Glycine pH 1.7 (flow rate 30 μL/min). The data were fit to a simple 1:1 interaction model using the global data analysis option available within BiacoreT200 Evaluation software V2.0. The affinity of Gal3 monoclonal antibodies was confirmed to be […] 30 nM for all antibodies studied (Table 24.1). Antibodies with affinity less than 2E-7 were selected for further characterization.

Q: For B1, which Kd is on record?
A: 2.82 nM

Q: With B2 as the molecule, how does the Kd read?
A: 6.07 nM

Q: How did the Kd turn out when B3 was run?
A: 0.562 nM

Q: Which Kd does the source give for B4 here?
A: < 1 nM

Q: With B5 as the molecule, how does the Kd read?
A: < 1 nM

system: hGal3 peptide; assay: Gal3 peptide library ELISA (Example 25); type: binding, human; details: hGal3 peptide No. bound
Experimental: To identify the epitopes to which Gal3 antibodies with and without Gal3-TIM3 blocking activity bound, a library of 20 amino acid peptides representing portions of Gal3, summarized in Table 24.1, was produced and the ability to bind Gal3 antibodies was evaluated by ELISA.
At least 2 μg/ml of hGal3 peptide in 50 μl of PBS or 0.1 μg/ml of full-length human Gal3 protein (GenScript) and human Galectin-3 protein (Acro Biosystems, GA3-H5129) were diluted in PBS (Corning, 21-030-CM) to concentrations of at least 2 μg/ml or 0.1 μg/ml, respectively, and added to the wells of a 96-well ELISA plate (Thermo Fisher, 44-2404-21). After incubating the plate at 4° C. overnight, the plate was washed three times with PBST (PBS with 0.05% Tween 20 [VWR, 0777]). The plate was then blocked for an hour with 2% BSA (EMD Millipore, 126609) in PBST at room temperature with gentle rocking. Thereafter, the 2% BSA in PBST was discarded and human Galectin-3 hybridoma supernatants or antibodies were diluted in 2% BSA in PBST to concentrations of at least 0.1 μg/ml and added to the wells. The plate was incubated for an hour at room temperature with gentle rocking and then washed three times with PBST. Afterwards, Goat Anti-Mouse IgG-HRP (Jackson ImmunoResearch, 115-036-1461) or Goat Anti-Rat IgG HRP (abcam, ab205720) diluted in 2% BSA in PBST (1:4000) were added to the wells. The plate was incubated for 30 minutes to 1 hour at room temperature with gentle rocking and then washed three times with PB ST. TMB substrate (Thermo Scientific, 34029) was then added to each well. The reaction was stopped with 1M HCl (JT Baker, 5620-02) and read using a plate reader (Molecular Devices) at absorbance of 450 nm.

Q: With B5 as the molecule, how does the “Epitope Mapping” value read?
A: 4

same assay, conditions: peptide array ELISA

Q: With B1 as the molecule, how does the Gal3 peptide bound read?
A: peptide 6

Q: B2 was tested. Which Gal3 peptide bound did it give?
A: peptide 6; also recorded: peptide 7

Q: For B3, which Gal3 peptide bound is on record?
A: peptide 6; also recorded: peptide 7

Q: With B4 as the molecule, how does the Gal3 peptide bound read?
A: peptide 4

Q: For B5, which Gal3 peptide bound is on record?
A: peptide 4

same assay, conditions: peptide array ELISA; listed as 3B11.2D2

Q: With B4 as the molecule, how does the Gal3 peptide bound read?
A: peptide 6

target: T1, association of GAL3 and TIM3 (Homo sapiens, UniProt P17931); assay: GAL3-TIM3 blocking ELISA (Examples 24, 27); type: binding; details: 3 ug/mL antibody
T1 construct: full-length human Galectin-3 protein (Acro Biosystems, GA3-H5129); linker-spaced 6-histidine tag; purchased Acro Biosystems GA3-H5129 (Gal3); TM3-H5229 (TIM-3)
T1 sequence (P17931 2-250 limits assumed): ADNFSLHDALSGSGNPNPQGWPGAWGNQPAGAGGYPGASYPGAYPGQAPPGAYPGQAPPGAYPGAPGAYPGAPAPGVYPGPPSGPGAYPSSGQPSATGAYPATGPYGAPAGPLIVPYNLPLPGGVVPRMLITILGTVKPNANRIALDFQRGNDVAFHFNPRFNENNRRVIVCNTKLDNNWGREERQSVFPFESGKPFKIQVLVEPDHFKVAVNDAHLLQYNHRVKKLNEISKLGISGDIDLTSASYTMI
Experimental: Positively scoring wells were evaluated for the ability to block association of GAL3 and TIM3. To identify GAL3-targeted antibodies with the ability to block the interaction of GAL3 and TIM3, purified GAL3 and TIM3 proteins were incubated in the presence of GAL3-immunization hybridoma supernatants described above, or without antibody, and protein interaction was evaluated by ELISA. Human Galectin-3 protein (Acro Biosystems, GA3-H5129) was diluted in PBS (Corning, 21-030-CM) to a concentration of 3 μg/ml and added to the wells of a 96-well ELISA plate (Thermo Fisher, 44-2404-21). After incubating the plate at 4° C. overnight, the plate was washed three times with PBST (PBS with 0.05% Tween 20 [VWR, 0777]). The plate was then blocked for an hour with 2% BSA (EMD Millipore, 126609) in PBST at room temperature with gentle rocking. Thereafter, the 2% BSA in PBST was discarded and antibody or inhibitor (3-fold dilutions beginning at 20 μg/ml, 60 μg/ml, or 180 μM) in 2% BSA in PBST was added to the wells. Afterwards, 2 μg/ml of human TIM3 (Aero Biosystems, TM3-H5229) in 2% BSA in PBST was added to the antibody or inhibitor in the wells in a 1:1 ratio. The plate was incubated for an hour at room temperature with gentle rocking. Thereafter, the plate was washed three times with PBST, and 0.3 μg/ml of human TIM3 Biotinylated Antibody (R&D Systems, BAF2365) in 2% BSA in PBST was added to the wells. The plate was incubated for an hour with gentle rocking and then washed three times with PBST. Avidin-HRP (1:2000) was then added to the wells. The plate was incubated at room temperature for an hour with gentle rocking and then washed three times with PBST. TMB substrate (Thermo Scientific, 34029) was then added to each well. The reaction was stopped with 1M HCl (JT Baker, 5620-02) and read using a plate reader (Molecular Devices) at absorbance of 450 nm.

Q: How did the “GAL3-TIM3 Blocking @ 3 ug/mL” value turn out when B1 was run?
A: 81%

Q: With B2 as the molecule, how does the “GAL3-TIM3 Blocking @ 3 ug/mL” value read?
A: 57%

Q: B3 was tested. Which “GAL3-TIM3 Blocking @ 3 ug/mL” value did it give?
A: 44%

Q: How did the “GAL3-TIM3 Blocking @ 3 ug/mL” value turn out when B4 was run?
A: 33%

Q: B5 was tested. Which “GAL3-TIM3 Blocking @ 3 ug/mL” value did it give?
A: 48%

target: human Gal3-His (Homo sapiens, UniProt P17931); assay: Antibody binning by biolayer interferometry (Gator); type: binding; details: antibody competition
Sequence (P17931 whole entry): as the sequence (P17931 whole entry) above
Experimental: To determine whether Gal3-binding antibodies with Gal3-TIM3 blocking activity bind to the same or overlapping regions of the Gal3 molecule, antibody binning assays were performed to assess the ability of antibodies to simultaneously bind Gal3. Amine-reactive probes were loaded onto a Gator biosensor (Probe Life, Palo Alto, Calif.), equilibrated in dH20 for 60 seconds, dipped into 100 μl EDC 0.2M/NHS 0.05M activation buffer for 30 seconds, then dipped into a solution of […] human Gal3-His in 10 mM NaOAc buffer, pH 5 until binding was saturated, and quenched in 1 M ethanolamine pH 8.5 for 300 seconds. Following Gal3-His loading, tips were dipped in 20 μg/mL saturating antibody, then successively dipped into 5 μg/mL competing antibody.

Q: With B1 as the molecule, how does the Bin read?
A: 1

Q: Which Bin does the source give for B2 here?
A: 2

Q: B3 was tested. Which Bin did it give?
A: 2

Q: For B5, which Bin is on record?
A: 6

Residue numbers refer to the chain shown, from its start. Entries after “also recorded” stand apart in the source; their conditions may differ.
